From the supplement of paper PMC12217912
The list shows a part of the results. Sequences were assembled here from the parent chain. Values near 0.05 are background.

B1: TEV protease; numbered along this chain (parent)
chain: MGESLFKGPRDYNPISSSICHLTNESDGHTTSLYGIGFGPFIITNKHLFRRNNGTLVVQSLHGVFKVKDTTTLQQHLVDGRDMIIIRMPKDFPPFPQKLKFREPQREERICLVTTNFQTKSMSSMVSDTSCTFPSGDGIFWKHWIQTKDGQCGSPLVSTRDGFIVGIHSASNFTNTNNYFTSVPKNFMELLTNQEAQQWVSGWRLNADSVLWGGHKVFMVKPEEPFQPVKEATQL

Variants of: B1
Experiment: raw area under fraction-flipped curve 0-4 h after induction (AUC4h, not background-subtracted), DNA-recorder readout of cleavage of the substrate (dimensionless); higher = more cleavage of the substrate by the protease variant
Settings: temperature: 34 °C; time window: 0-4 h after rhamnose induction
Protocol: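 In vivo DNA recorder in E. coli TOP10(DE3) ΔrhaA at 34 °C. Each TEVp single-site mutant (parent TEVp 0) is paired with a single-site variant of the 7-mer TEVs (canonical ENLYFQ|S). The substrate sits between flexible linkers in a Bxb1-sfGFP-TEVs-SsrA fusion, so cleavage stabilises Bxb1 and speeds flipping of a recombination array, read by NGS. The value is the raw area under the fraction-flipped curve over 0-4 h after rhamnose induction (AUC4h), with ≥20 reads per time point. It is not background-subtracted; inactive controls average about 0.047.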
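Note: Bxb1 expression induced with 0.2% (w/v) L-rhamnose at OD600 near 0.5, cultures sampled hourly, flipped fraction per protease–substrate barcode pair counted by paired-end Illumina sequencing.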

Row | Variant | area with substrate ENLAFQS | area with substrate ENLCFQS | area with substrate ENLEFQS | area with substrate ENLFFQS | area with substrate ENLGFQS | area with substrate ENLHFQS | area with substrate ENLIFQS | area with substrate ENLKFQS | area with substrate ENLMFQS | area with substrate ENLPFQS | area with substrate ENLQFQS | area with substrate ENLRFQS | area with substrate ENLSFQS | area with substrate ENLDFQS | area with substrate ENLLFQS | area with substrate ENLNFQS | area with substrate ENLVFQS | area with substrate ENLWFQS | area with substrate ENLTFQS
1 | P96M | 0.0447 | 0.046 | 0.0677 | 0.11 | 0.0951 | 0.0632 | 0.0703 | 0.0997 | 0.0667 | 0.0613 | 0.0657 | 0.0888 | 0.0707 | – | – | – | – | – | –
2 | C152W | 0.0565 | 0.0761 | – | 0.075 | 0.0594 | 0.0601 | – | 0.0692 | – | 0.0496 | 0.0515 | 0.0807 | 0.036 | 0.0653 | 0.0705 | 0.0577 | 0.0596 | – | –
3 | C152D | 0.0793 | 0.0647 | 0.073 | – | – | 0.0612 | 0.0663 | 0.0677 | – | – | – | 0.0525 | – | 0.0642 | – | – | – | 0.0641 | –
4 | I43K | 0.0532 | 0.0548 | – | 0.0492 | – | 0.0412 | 0.0653 | – | – | 0.0547 | 0.051 | 0.0452 | – | 0.052 | 0.0525 | 0.053 | – | 0.0592 | –
5 | E103G | 0.0759 | – | 0.0519 | 0.0767 | 0.0744 | 0.0599 | 0.0697 | 0.065 | 0.0704 | 0.0661 | 0.0648 | 0.0682 | 0.0726 | 0.0625 | 0.0589 | 0.0584 | – | 0.058 | –
6 | T176S | 0.0603 | 0.0565 | 0.0715 | 0.0565 | – | 0.0681 | – | 0.0623 | – | – | – | 0.067 | 0.0723 | 0.0532 | 0.0594 | 0.0648 | – | – | 0.0539
7 | R160I | 0.0671 | 0.0472 | 0.0674 | 0.0833 | – | 0.059 | 0.0796 | 0.112 | 0.0795 | 0.0614 | – | 0.0703 | 0.0603 | 0.0674 | 0.0233 | 0.0609 | 0.0627 | 0.0645 | –
8 | D208K | – | 0.0846 | – | – | – | 0.0749 | – | – | – | – | – | – | 0.0498 | – | – | 0.0565 | – | – | –
9 | G150W | 0.0571 | 0.0689 | 0.0322 | 0.0577 | – | 0.0829 | 0.0651 | 0.0531 | – | 0.0551 | 0.059 | 0.0531 | 0.0529 | 0.0629 | 0.0604 | 0.0569 | 0.0228 | 0.0584 | –
10 | W144V | 0.0621 | 0.0792 | 0.0779 | 0.0737 | – | 0.0688 | 0.0729 | 0.075 | – | 0.0604 | 0.0637 | 0.0666 | 0.0717 | 0.0663 | – | 0.0468 | – | 0.058 | –
11 | S32L | 0.0618 | 0.0669 | 0.0645 | 0.0369 | – | 0.0561 | 0.0786 | 0.0789 | 0.0896 | 0.0569 | 0.0781 | 0.0941 | 0.0674 | 0.0673 | – | 0.0599 | – | 0.0446 | –
12 | S32A | 0.0646 | 0.0692 | 0.0708 | 0.0861 | 0.0648 | 0.0609 | 0.0776 | 0.0561 | – | – | 0.0747 | 0.0704 | – | 0.0627 | 0.0693 | 0.0576 | – | 0.0706 | –
13 | G136Q | – | 0.0451 | 0.068 | 0.0847 | 0.0677 | 0.0654 | 0.0617 | 0.0749 | 0.0904 | – | 0.0717 | 0.08 | 0.0689 | 0.0602 | 0.0714 | 0.0694 | – | 0.0667 | –
14 | G136H | 0.068 | 0.0645 | 0.0843 | 0.0668 | – | 0.0726 | 0.0987 | 0.0668 | – | 0.0777 | 0.0576 | – | 0.0481 | 0.0638 | – | 0.0724 | 0.0827 | 0.061 | –
15 | V200L | – | 0.0505 | 0.0626 | 0.0693 | – | – | 0.0532 | 0.0628 | – | 0.0543 | 0.0736 | – | – | 0.0629 | – | 0.0493 | – | – | –
16 | P184S | 0.0622 | – | 0.026 | 0.0752 | 0.0521 | 0.0591 | 0.0517 | 0.0752 | – | 0.0464 | 0.0654 | 0.0503 | 0.0563 | 0.0609 | 0.089 | 0.0767 | 0.0826 | 0.0611 | –
17 | K46S | 0.0655 | – | 0.0848 | 0.0731 | 0.075 | 0.0694 | – | 0.0651 | 0.0648 | 0.0611 | 0.0425 | 0.0606 | 0.0807 | 0.0531 | 0.06 | 0.0657 | 0.0719 | – | –
18 | A232S | – | 0.0882 | – | 0.0901 | – | 0.081 | 0.0815 | 0.0797 | 0.0978 | 0.0775 | 0.111 | 0.0645 | 0.052 | – | – | 0.0586 | – | 0.0736 | –
19 | L48Q | 0.0637 | 0.0534 | – | 0.0722 | 0.0533 | 0.0525 | 0.0737 | 0.066 | – | 0.0579 | 0.0714 | 0.0558 | 0.0519 | 0.062 | 0.0552 | 0.0623 | – | – | –
20 | L48C | 0.086 | 0.0751 | 0.059 | 0.0658 | – | 0.0611 | 0.0652 | 0.0815 | – | 0.0632 | 0.0639 | – | 0.0814 | 0.0577 | 0.0515 | 0.0814 | – | 0.0569 | 0.0563
21 | L48F | 0.0664 | 0.0726 | 0.0658 | 0.0943 | 0.0537 | 0.0776 | 0.0509 | 0.0843 | 0.0693 | 0.0681 | 0.0685 | – | 0.0591 | 0.0665 | 0.0781 | 0.0514 | 0.0752 | – | –
22 | L48I | 0.0644 | – | 0.0647 | 0.0641 | – | 0.058 | 0.0779 | 0.0742 | 0.0637 | 0.0412 | 0.0641 | – | 0.0622 | 0.0696 | 0.0835 | 0.0653 | – | – | –
23 | S4D | 0.0648 | 0.0598 | 0.0616 | 0.117 | – | 0.073 | – | 0.0875 | 0.0637 | 0.0468 | – | 0.0777 | 0.0611 | 0.058 | 0.0753 | 0.073 | – | 0.0868 | –
24 | N175K | 0.0593 | – | 0.0638 | 0.103 | 0.0687 | 0.0582 | 0.104 | 0.0817 | 0.096 | – | – | 0.0739 | 0.0615 | 0.0702 | 0.0827 | 0.0647 | 0.0641 | 0.0768 | –
25 | R204K | 0.0583 | 0.0755 | – | 0.0962 | – | 0.0591 | 0.0849 | 0.0831 | 0.07 | – | – | – | 0.0743 | 0.0546 | 0.058 | 0.0675 | 0.102 | 0.0797 | 0.065
26 | G39A | 0.0348 | 0.079 | 0.0479 | 0.0469 | 0.0377 | 0.0354 | – | – | – | 0.0243 | – | 0.0383 | 0.0425 | 0.0447 | – | 0.0678 | 0.0453 | – | –
